Results on 126 molecules are retold here after article PMC9574860, “Chemical Toolkit for PARK7: Potent, Selective, and High-Throughput” (Journal of Medicinal Chemistry, 2022).

The structures appear in SMILES notation. The campaign covered roughly 7,900 compounds. About 400 (5.1%) showed an effect of 50% or more. The list shows a part of the results.

Chain of Parkinson's disease protein 7 (PARK7/DJ1) (Q99497 whole entry, looked up, the tested form may be a part): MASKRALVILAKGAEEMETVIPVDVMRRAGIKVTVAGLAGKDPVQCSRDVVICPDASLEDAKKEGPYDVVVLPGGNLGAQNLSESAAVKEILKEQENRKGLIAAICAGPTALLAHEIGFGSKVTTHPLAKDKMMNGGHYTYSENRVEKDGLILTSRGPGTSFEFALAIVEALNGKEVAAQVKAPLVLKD

The experiment concerns the target Parkinson's disease protein 7 (PARK7/DJ1) (human, UniProt Q99497). Kind of experiment: primary screen, percent inhibition; read as competition with a fluorescent probe by fluorescence polarization; higher = more effect of the substance. As to conditions: 100 µM. Put shortly: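 Fluorescence-polarization probe displacement (JYQ-107, 20 nM final, 2 h) after 2 h preincubation of PARK7 (0.2 μM final) with each fragment at 100 μM final. Read-out ex/em 480/520 nm; remaining activity derived from FP signal loss relative to reference controls.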
For `COC1CCN(c2nc(C#N)c(Cl)s2)CC1`, the Inhibition % worked out at 7.16%. Consider `COc1ccc(CNC(=O)CC2C=CS(=O)(=O)C2)cc1` (stereo not drawn), for which the Inhibition % is on record as -0.242%.

For the molecule `O=C(C=Cc1cnn(-c2ccccc2)c1)N1CCC1`, the Inhibition % was 12.2%.

Regarding `CC1(C)OB(C2=CCCOC2)OC1(C)C`, the Inhibition % came to 8.59%. In the case of `O=C(O)C=CC(=O)Nc1ccc(F)c(Cl)c1` it was 8.72%; in that of `CCN(C(=O)CCl)C1CCS(=O)(=O)C1` (stereo not drawn), 10.9%; in that of `C=CC(=O)N1CCC2COCC2C1` (stereo not drawn), 6.41%. On to `CC(O)Cn1c(S)nc2ccccc2c1=O` (stereo not drawn), for which the Inhibition % came to 9.62%. `CC1(C)OB(c2ccc3sccc3c2)OC1(C)C`: the Inhibition % came to 1.89%. As for `O=C(C=Cc1nc2ccccc2s1)N1CCC1`, the Inhibition % was determined as 6.59%. As to `O=C(CCl)Nc1ccccc1-c1ccccc1`, the Inhibition % came to 8.41%. As to `CCN(Cc1ccc(C#N)cc1F)C(=O)CCl`, the Inhibition % turned out to be 16.8%. As to `C=CC(=O)NCC1(N(C)C)Cc2ccccc2C1`, the Inhibition % is on record as 10.8%. Regarding `C=CC(=O)NC(C)C1CCCN(C2CCC2)C1` (stereo not drawn), the Inhibition % was found to be 0.724%.

Turning to `N#Cc1cc(C2CC2)ccn1`, the Inhibition % came out at 4.67%.

On to `C=CC(=O)N1CCOCC1CC1CCCO1` (stereo not drawn), for which the Inhibition % was 4.78%.

In the case of `CC1(C)OB(c2ccc(F)c(C(F)(F)F)c2)OC1(C)C`, the Inhibition % is given as 1.74%. As for `CCn1c(S)nc2ccc(F)cc2c1=O`, the Inhibition % was 0.493%.

Regarding `N#CC(=Cc1ccco1)C(=O)NC1CC1`, the Inhibition % was determined as 7.63%. With `CS(=O)(=O)OCC1CCc2ccccc21` (stereo not drawn), the Inhibition % amounted to 10.7%. For `Cc1cnn(CC2CN(C3CC(C)OC3=O)CCO2)c1` (stereo not drawn) the value was 5.46%; for `CC(C)(C)C(NC(=O)CCl)c1cccs1` (stereo not drawn), 7.07%; for `O=c1[nH]c(Cc2ccncc2)no1`, 6.48%. For the molecule `NC(=O)c1cccnc1S`, the Inhibition % is given as 4.97%. For the molecule `CSc1cccnc1C#N`, the Inhibition % is 8.15%.

Take `O=C1NC(=O)C(CS(=O)(=O)F)N1` (stereo not drawn): the Inhibition % came out at 69.7%.

`COCCCn1c(S)nc2ccccc2c1=O`: the Inhibition % is on record as 10.4%. As for `CC(C)(C)c1ccc(-c2csc(NC(=O)CCl)n2)cc1.Cl`, the Inhibition % was determined as 2.6%.

Take `C1C2CC3CC1CC(C2)C31CO1` (stereo not drawn): the Inhibition % came to 5.19%. With `C=CC(=O)NC1(c2nc(C)cs2)CCOCC1`, the Inhibition % is given as -0.88%. Take `C=CS(=O)(=O)c1cccc(C#N)c1`: the Inhibition % is reported as 6.17%.

In the case of `C=CC(=O)N1CCC(c2ccccc2)CC1`, the Inhibition % was determined as 5.28%. Take `C=CC(=O)N1CCS(=O)(=O)[C@@H](C)C1`: the Inhibition % was determined as 4.38%. As to `O=S(=O)(F)c1cc2c(Br)cccc2s1`, the Inhibition % amounted to 8.7%.

Turning to `O=C(c1cccc(F)c1)N1CCCCC1C1OCCO1` (stereo not drawn), the Inhibition % worked out at 4.7%. Take `CNC(=O)c1c(C)nc(S)c(C#N)c1-c1ccco1`: the Inhibition % worked out at 5.07%. Regarding `Cl.O=C(CCl)N1CCN(Cc2c(F)cccc2Cl)CC1`, the Inhibition % worked out at 4.23%. For `Cc1cc(S(=O)(=O)n2cccn2)c(C)cc1Cl`, the Inhibition % is -0.661%. For `CCc1nn(C)cc1NS(=O)(=O)c1cccc(S(=O)(=O)F)c1`, the Inhibition % is on record as 95.4%. In the case of `O=C(CCl)NCC#Cc1ccccc1`, the Inhibition % worked out at 1.08%. For `C=CC(=O)N1CCn2cccc2C1CC` (stereo not drawn), the Inhibition % amounted to 2.16%. Regarding `CC1CC(N2CCN(Cc3cccc(O)c3)CC2)C(=O)O1` (stereo not drawn), the Inhibition % came out at 4.59%.

For the molecule `C=CC(=O)N(C)C1CCC(=O)N(C)C1` (stereo not drawn), the Inhibition % is on record as 2.89%. For `O=S(=O)(F)c1ccc(S(=O)(=O)Nc2cccnc2O)cc1` the value was 8.42%. As for `CC1(C)OB(c2c(Cl)cccc2C#N)OC1(C)C`, the Inhibition % was found to be 0.642%.

For `N#CC(=Cc1ccc(-c2ccc(Cl)cc2Cl)o1)C(N)=O`, the Inhibition % was 3.17%. On to `C=CC(=O)Nc1cnn2c1CCCC2`, for which the Inhibition % is reported as 10.1%. As for `CC(C)NC(=O)C(C#N)=Cc1cccc(F)c1F`, the Inhibition % was 13%.

Take `Cc1ccc(C)c(C2CO2)c1` (stereo not drawn): the Inhibition % is 8.28%. `Cc1ncc(C=CC(=O)N2CCNC(C)C2)s1` (stereo not drawn): the Inhibition % is reported as 6.77%. For `C=CC(=O)NC1(C)CCOC1C` (stereo not drawn), the Inhibition % stood at 6.75%. On to `C=CC(=O)N1CCCc2cccc(OC)c21`, for which the Inhibition % was 3.82%. For `CC1CCCC(C)N1C(=O)C=Cc1ccccn1` (stereo not drawn) the value was 16.8%; for `CC1(C)OB(c2ccc(S(N)(=O)=O)c(N)c2)OC1(C)C`, 4.77%. As for `C=CC(=O)N(Cc1nc(C)cs1)CC1CCCO1` (stereo not drawn), the Inhibition % was determined as 4.68%.

Turning to `C=CC(=O)NC1CCCN(c2ccnn2C)C1` (stereo not drawn), the Inhibition % is reported as 26.2%. As for `CS(=O)(=O)OCC1(C#N)CCCCC1`, the Inhibition % stood at 8.05%. In the case of `C=CC(=O)N1CCC(C(=O)O)(c2ccccc2)CC1`, the Inhibition % was determined as 2.37%.

With `COC(=O)c1ccc(CS(=O)(=O)F)cc1`, the Inhibition % is on record as 7.95%. In the case of `CC1(C)CCC2OC2C1` (stereo not drawn) it was 5.09%. Consider `C=CC(=O)Nc1cc(OC)c2ncccc2c1`, for which the Inhibition % amounted to 29.3%. As to `CNC(=O)Cn1nc(-c2ccc(F)cc2)oc1=O`, the Inhibition % amounted to 16.9%. For `CN(C)S(=O)(=O)C=Cc1ccc(Cl)cc1` the value was 11.6%; for `O=C(CCl)N(Cc1ccc(F)cc1)C1CCCCC1`, 8.38%; for `ClCCC1CCOCC1`, 4.65%. In the case of `C=CC(=O)NC1CCCN(c2ccnn2C)C1=O` (stereo not drawn) it was 17.8%. For `C=CC(=O)NC(C)C(C)n1cncn1` (stereo not drawn), the Inhibition % is on record as 14.2%. In the case of `CC1(C)OB(c2ccnc3c(O)cccc23)OC1(C)C`, the Inhibition % is 22.4%. `COc1cc(C)c(C)cc1S(=O)(=O)n1ccc(C)n1`: the Inhibition % is given as 2.99%. In the case of `C=CC(=O)N1CCCC(C(C)NC(=O)NC(C)(C)C)C1` (stereo not drawn) it was 9.75%.

Turning to `CC(C)C1CN(c2ccc(C#N)nc2)CCS1` (stereo not drawn), the Inhibition % is 6.47%. As for `O=C1CN=C(S)N1Cc1ccco1`, the Inhibition % was 34.1%. In the case of `N#Cc1c2c(n(-c3ccccc3)c1NC(=O)CCl)CCCC2`, the Inhibition % worked out at 5.73%. With `Cc1cc(C)c(NC(=O)Cn2cnc(C#N)n2)c(Cl)c1`, the Inhibition % turned out to be 29.5%. Regarding `N#CC1(NC(=O)CCl)CCCC1`, the Inhibition % is listed as 26.3%. For `C=CC(=O)N[C@@H]1CCO[C@H]1CC` (racemic), the Inhibition % was determined as 3.31%. On to `C=CC(=O)NC1CCCN(c2ccccc2)C1=O` (stereo not drawn), for which the Inhibition % came out at 7.42%. Take `O=C1CC(C(F)(F)F)N(C(=O)CCl)c2ccccc2N1` (stereo not drawn): the Inhibition % is listed as 53%. For the molecule `N#Cc1ncn(CCS(=O)c2ccccc2)n1` (stereo not drawn), the Inhibition % stood at 7.78%. Regarding `C=CC(=O)NC(C)C1(C)CC1` (stereo not drawn), the Inhibition % came out at 3.08%. In the case of `O=S(=O)(Oc1cnc2ccccc2c1)c1cccnc1`, the Inhibition % is 20.6%. For the molecule `NS(=O)(=O)c1ccc(CCNC(=O)CCl)cc1`, the Inhibition % turned out to be 17.2%. Regarding `Cn1c(SC2CCOC2=O)nnc1-c1ccccc1` (stereo not drawn), the Inhibition % was found to be 12.6%. Take `N#Cc1ccc(C(F)(F)F)nn1`: the Inhibition % is listed as 4.49%. As to `C=CC(=O)NCc1ccc2occc2c1`, the Inhibition % is 9.29%.

For `CS(=O)C1(CNC(=O)c2cccc(S(=O)(=O)F)c2)CCC1` (stereo not drawn), the Inhibition % came out at 97.3%. Turning to `Fc1ccc(CC2CO2)cc1` (stereo not drawn), the Inhibition % is on record as 6.59%. Turning to `N#Cc1nccnc1NCC12CC3CC(CC(C3)C1)C2`, the Inhibition % came to 3.91%. In the case of `C=CC(=O)N1CCN(C)c2cc(Cl)ccc21` it was 21.6%. For `O=C1CC(c2ccco2)N1` (stereo not drawn), the Inhibition % came out at 28.2%.

On to `CCN(Cc1ccnc(C#N)c1)CC1CCOC1` (stereo not drawn), for which the Inhibition % came out at 11.3%. For the molecule `COC(=O)c1ccc(Oc2ccc(C#N)nc2)cc1`, the Inhibition % is listed as 6.29%. `C=CC(=O)N1CCC(n2nnc3c2CCCC3)CC1`: the Inhibition % was found to be 8.25%. As for `O=S(=O)(C=Cc1ccc(Cl)cc1)NCCc1ccco1`, the Inhibition % was -0.751%.

In the case of `C=CC(=O)N1CCOCc2ccccc21`, the Inhibition % is recorded as 6.03%. On to `Cc1ncc(B2OC(C)(C)C(C)(C)O2)cc1Cl`, for which the Inhibition % amounted to 6.15%. For `CCOc1ccccc1NC(=O)CCl` the value was 13.1%; for `O=C1CN=C(S)N1Cc1ccccc1`, 6.43%; for `N#CC(=Cc1ccc(Cl)cc1)C(=O)O`, 0.42%. As for `Cc1n[nH]c(C)c1CNc1ccc(Cl)c(C#N)n1`, the Inhibition % is reported as 1.98%. Turning to `CN(Cc1cccs1)C(=O)Cn1cnc(C#N)n1`, the Inhibition % is listed as -3.76%.

For `c1ccc(COC2CC3OC3C2)cc1` (stereo not drawn), the Inhibition % was 0.774%. Regarding `N#Cc1[nH]c2ccccc2c1N`, the Inhibition % came to 72.9%.

With `O=C1NC(C(=O)N2CCCC2c2ccccc2Cl)CS1` (stereo not drawn), the Inhibition % is 6.93%.

In the case of `O=S(=O)(F)c1cccc(S(=O)(=O)Nc2cccnc2O)c1`, the Inhibition % came to 99.4%.

As for `C=CC(=O)N1CCOC(OC)C1` (stereo not drawn), the Inhibition % is given as 8.53%. Regarding `O=C(CCl)c1cscn1`, the Inhibition % worked out at 101%. In the case of `O=C(CCCl)N1CCN(c2ccc(F)cc2)CC1` it was 6.06%; in that of `CC1CCc2c(sc(NC(=O)CCl)c2C(N)=O)C1` (stereo not drawn), 5.01%; in that of `C=CC(=O)N1CCCC(NS(C)(=O)=O)C1` (stereo not drawn), 7.88%. As for `COc1ccc(C2NCC(CCl)O2)c(OC)c1` (stereo not drawn), the Inhibition % is -0.766%. For `C=CC(=O)N1CCN(c2ncns2)CC1` the value was 8.81%; for `CS(=O)(=O)C(C#N)=Cc1ccc(-c2ccccc2F)o1`, 5.46%. As for `O=C(CCl)N1c2ccccc2CCc2ccccc21`, the Inhibition % stood at 61%. On to `CCC1c2ccsc2CCN1C(=O)C=Cc1cnn(C)c1` (stereo not drawn), for which the Inhibition % was 10.2%.

On to `CNc1nc(SC2CC(C)OC2=O)nc2ccccc12` (stereo not drawn), for which the Inhibition % was 3.03%.

Regarding `Cc1ccc(C=C(C#N)C(=O)NCc2ccco2)cc1F`, the Inhibition % is given as 4.94%. In the case of `Cc1ccc(NC(=O)CCl)c(C)c1`, the Inhibition % was -1.64%. As for `O=C(CCl)NCC1CCCO1` (stereo not drawn), the Inhibition % was found to be 5.15%.

Take `O=C(CCl)NCCc1ccc(Cl)cc1`: the Inhibition % is listed as 41.2%. With `N#CC(=Cc1cccc(F)c1F)C(=O)NCC1CCCO1` (stereo not drawn), the Inhibition % is on record as 9.53%. As to `OB(O)c1ccc(-c2ccccc2)cc1F`, the Inhibition % came to 24.2%. In the case of `C=CC(=O)N1CCOc2cc(F)ccc2C1`, the Inhibition % was 7.81%. Regarding `Cc1ccnc(NC(=O)CN2C(=O)CCC2=O)c1`, the Inhibition % is recorded as -0.475%. In the case of `N#Cc1cc(Cl)c2ccccc2n1`, the Inhibition % is 2.16%. On to `C=CC(=O)NCc1nc(C2CC2)cs1`, for which the Inhibition % turned out to be 9.27%.
